In the supplement of paper PMC3334620:
Whole data set: some 33,000 sequences, median “E-score (-0.5 to 0.5)” near -0.032, cut for the highest 2% near 0.36. This is one part of the list.

What follows are sequences tested against T1, Sko1 (UniProt Q02100) (assay: PBM E-score (8-mer binding enrichment) (E-score (-0.5 to 0.5)); higher = stronger / more preferred TF binding; most listed sequences are background and not binding sites). Conditions: protein concentration: 200 nM; construct: GST-full length.
T1 sequence: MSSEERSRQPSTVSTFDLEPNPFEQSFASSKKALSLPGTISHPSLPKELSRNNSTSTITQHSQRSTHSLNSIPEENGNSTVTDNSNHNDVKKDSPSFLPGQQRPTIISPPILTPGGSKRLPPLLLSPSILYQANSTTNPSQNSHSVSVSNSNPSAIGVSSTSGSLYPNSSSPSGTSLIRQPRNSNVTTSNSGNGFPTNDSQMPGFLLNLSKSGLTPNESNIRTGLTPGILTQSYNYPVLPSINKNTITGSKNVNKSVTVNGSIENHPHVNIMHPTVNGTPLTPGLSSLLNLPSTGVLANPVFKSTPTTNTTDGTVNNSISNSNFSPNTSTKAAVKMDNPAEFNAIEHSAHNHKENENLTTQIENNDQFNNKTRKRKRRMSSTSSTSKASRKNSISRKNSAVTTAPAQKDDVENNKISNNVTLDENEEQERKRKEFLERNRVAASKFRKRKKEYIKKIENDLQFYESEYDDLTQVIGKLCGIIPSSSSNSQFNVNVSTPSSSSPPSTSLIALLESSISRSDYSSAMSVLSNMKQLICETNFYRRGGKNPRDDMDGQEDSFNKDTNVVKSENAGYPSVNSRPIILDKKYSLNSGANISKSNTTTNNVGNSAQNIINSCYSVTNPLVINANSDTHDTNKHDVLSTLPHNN
Experimental: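 Universal 'all 10-mer' protein binding microarrays (Agilent AMADID 015681) probed with GST-tagged S. cerevisiae TFs (full-length or DBD) made by in vitro transcription/translation (PURExpress), about 100-200 nM. Bound TF was detected with fluorescent anti-GST. Each ungapped 8-mer (which stands for itself and its reverse complement) is scored by the PBM enrichment score (E-score), a modified Wilcoxon-Mann-Whitney statistic from -0.5 to +0.5, computed with the Universal PBM Analysis Suite. Scale: above 0.35 generally sequence-specific binding.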

Sequence	PBM E-score
CTAATGTA	0.14
GAAGAAAC	0.056
AAACTAAA	0.214
ACAGCTAC	-0.0244
GTAGGTAA	0.0801
TAACCACA	0.115
ATAACGCA	0.284
CCGGAAAG	-0.158
CATCGCTA	0.13
TGTAAACA	0.206
CGGGAAAG	-0.185
ACGGTCAT	0.218
CTCTGACC	-0.133
CTTCTGTC	0.0332
CGCATTTC	0.151
ACATGTAC	0.0467
ACCCATGA	-0.0642
GCATACCA	-0.0866
ACCCCCGA	-0.144
TGGATCAA	-0.00178
ACGGATGC	0.0575
CCAAATCA	0.0467

Sequence	PBM E-score
CACGGAGC	-0.0891
GGACGTAA	0.426
GGGAACTA	-0.0345
GATGAAGA	-0.159
GGCTCCAA	-0.191
AGAGTGGC	-0.046
GAGCCCGC	-0.24
ATCGCATC	-0.0527
AGTCTGTA	-0.0432
ATAGACCC	0.0351
CAGTCGAC	0.119
ACAGGCAT	-0.0532
AGCCGGAG	0.0107
AGGATCGA	-0.0992
CCTGAACC	0.0606
GTATACAC	0.234
CCATGTCA	0.149
GGCAGCCC	-0.345
GAAGGCAC	-0.0367
AGCAAGCG	-0.0581
CCTTGGAC	-0.0827
CTTAGTGC	-0.158

Sequence	PBM E-score
GGGGACAC	-0.203
GTTGCGCA	0.0149
TGTCCAAA	0.0638
GTGTCCGA	0.0394
AAGACCTT	0.0103
ATTCCGTC	0.154
CACCGGGC	-0.343
GGGGGTGA	-0.175
AACCCACT	0.0154
AGGAGGAT	-0.12
AAGCCTAC	0.0793
ACCAGCCT	-0.272
GCTTGTCC	-0.105
CCAGCGAG	-0.287
CCCGCTTC	-0.286
GTTAAAAA	0.22
ATCAATTC	-0.0583
CTTGGAAA	-0.0507
GCCACCGA	-0.0905
AGACCGAC	-0.0155
ACGTTATC	0.413
AGCACTGA	-0.0783

Sequence	PBM E-score
AACAGCCT	-0.186
ATCCTGAC	0.0973
CCCAGGGA	-0.326
TGGAGTAA	0.111
CGAAATCC	0.0256
CGCTAACA	0.0733
CGAGTATA	-0.0254
ACATATGC	0.00575
TCTTGCAA	0.0663
ATATTTTA	0.184
ATCCGACC	0.00665
ATCAGTAG	0.0419
AGGTAAAG	0.131
ACTGCGCA	0.0898
AATTACTG	0.0967
ACCCCATC	-0.171
CATGGACC	-0.143
ACAGTTGA	-0.054
CCCATAAC	-0.0669
AGTTTATA	0.178
